Consider seven molecules from paper PMC9678772.

By UniProt entry, the sequences of proteins in these tests, tags left out.
UniProt O15392: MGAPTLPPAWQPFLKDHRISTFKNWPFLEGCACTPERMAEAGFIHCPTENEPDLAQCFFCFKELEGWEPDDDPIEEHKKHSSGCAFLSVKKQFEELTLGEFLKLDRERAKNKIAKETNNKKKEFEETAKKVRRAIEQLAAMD
UniProt P84022: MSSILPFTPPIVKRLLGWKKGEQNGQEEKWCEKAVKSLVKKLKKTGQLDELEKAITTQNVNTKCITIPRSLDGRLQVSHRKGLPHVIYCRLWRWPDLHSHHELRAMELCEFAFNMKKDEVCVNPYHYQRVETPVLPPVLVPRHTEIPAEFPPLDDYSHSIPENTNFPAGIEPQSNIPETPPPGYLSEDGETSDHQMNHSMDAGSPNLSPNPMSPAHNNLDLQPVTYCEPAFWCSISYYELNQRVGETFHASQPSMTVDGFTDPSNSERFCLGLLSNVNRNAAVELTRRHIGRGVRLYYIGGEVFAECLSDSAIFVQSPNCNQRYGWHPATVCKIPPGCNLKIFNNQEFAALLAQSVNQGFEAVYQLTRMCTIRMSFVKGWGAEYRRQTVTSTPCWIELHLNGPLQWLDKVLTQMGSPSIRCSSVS
UniProt P05412: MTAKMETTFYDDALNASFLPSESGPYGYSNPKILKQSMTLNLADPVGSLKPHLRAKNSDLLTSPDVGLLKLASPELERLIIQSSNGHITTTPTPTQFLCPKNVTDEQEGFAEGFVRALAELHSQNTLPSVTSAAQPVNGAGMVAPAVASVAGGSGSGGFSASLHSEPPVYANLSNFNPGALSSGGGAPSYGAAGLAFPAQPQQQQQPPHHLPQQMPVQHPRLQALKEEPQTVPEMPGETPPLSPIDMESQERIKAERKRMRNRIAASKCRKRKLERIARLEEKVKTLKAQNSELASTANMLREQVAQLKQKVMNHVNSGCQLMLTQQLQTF
UniProt P01106: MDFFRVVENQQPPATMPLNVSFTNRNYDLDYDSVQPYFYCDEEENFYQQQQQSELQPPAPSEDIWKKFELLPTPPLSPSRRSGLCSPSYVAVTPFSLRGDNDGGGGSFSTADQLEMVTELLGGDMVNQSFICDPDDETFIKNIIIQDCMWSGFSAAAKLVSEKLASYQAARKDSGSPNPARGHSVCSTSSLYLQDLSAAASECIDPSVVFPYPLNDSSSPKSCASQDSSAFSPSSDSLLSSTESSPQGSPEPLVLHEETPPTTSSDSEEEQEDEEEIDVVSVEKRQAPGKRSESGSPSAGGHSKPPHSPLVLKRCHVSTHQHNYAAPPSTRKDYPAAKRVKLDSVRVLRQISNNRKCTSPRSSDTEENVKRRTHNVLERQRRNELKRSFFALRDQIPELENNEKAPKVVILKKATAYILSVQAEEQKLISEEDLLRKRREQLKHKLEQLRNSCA

These are yes or no findings as the source states them, for the method shown. In cells and extracts the contact can be indirect. Some binding calls cover weakened binding; strength is not graded here.

The target in experiment [1] is survivin (human (endogenous in THP1)) (UniProt O15392). Briefly: co-IP; IP of endogenous survivin from THP1 nuclear extract with monoclonal rabbit anti-human survivin (ab192675) on Dynabeads Protein G, cross-linking with bis(sulfosuccinimidyl)suberate; nuclei lysed in modified RIPA (Tris-HCl pH 7.4 25 mM, NaCl 200 mM, EDTA 1 mM, Nonidet P-40 1%, glycerol 5%); control IP with rabbit IgG; Western blot of the precipitate.

The target in experiment [2] is SMAD3 (human (endogenous in THP1)) (UniProt P84022). Briefly: co-IP; reciprocal IP of endogenous IRF1 (sc74530) or SMAD3 (sc101154) from THP1 nuclear extract on Dynabeads Protein G, cross-linking with bis(sulfosuccinimidyl)suberate; control IP with mouse IgG; Western blot for survivin. A general note: In western blotting, separated proteins are transferred to a membrane and probed.

Experiment [3] addresses T1, interferon regulatory factor 1 (IRF1) (human (endogenous in THP1)) (UniProt P10914).
T1 sequence: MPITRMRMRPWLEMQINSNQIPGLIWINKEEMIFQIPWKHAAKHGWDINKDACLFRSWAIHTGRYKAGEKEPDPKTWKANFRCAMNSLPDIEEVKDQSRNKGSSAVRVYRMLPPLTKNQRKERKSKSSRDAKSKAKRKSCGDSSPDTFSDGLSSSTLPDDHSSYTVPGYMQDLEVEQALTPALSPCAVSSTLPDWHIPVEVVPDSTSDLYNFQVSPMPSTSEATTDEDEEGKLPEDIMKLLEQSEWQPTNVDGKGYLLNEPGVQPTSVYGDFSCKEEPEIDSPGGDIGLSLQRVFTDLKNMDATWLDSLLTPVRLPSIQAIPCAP
The description is as above.

Regarding JUN (from UniProt P05412 1-331), the binding entry in experiment [1] is “no binding”. As to SMAD3 (from UniProt P84022 1-425), the binding result in experiment [1] was “binds”. On to c-MYC (from UniProt P01106 1-454), for which, in experiment [1], the binding entry was “no binding”. For the molecule survivin (from UniProt O15392 1-142), the binding result in experiment [2] and in experiment [3] was “binds” in each case.

B1: interferon regulatory factor 1 (IRF1) (protein, UniProt P10914 1-325)
chain: T1 sequence
For B1, the binding entry in experiment [1] is reported as “binds”.

B2: JUND (protein, UniProt P17535 1-347)
chain: METPFYGDEALSGLGGGASGSGGSFASPGRLFPGAPPTAAAGSMMKKDALTLSLSEQVAAALKPAAAPPPTPLRADGAPSAAPPDGLLASPDLGLLKLASPELERLIIQSNGLVTTTPTSSQFLYPKVAASEEQEFAEGFVKALEDLHKQNQLGAGAAAAAAAAAAGGPSGTATGSAPPGELAPAAAAPEAPVYANLSSYAGGAGGAGGAATVAFAAEPVPFPPPPPPGALGPPRLAALKDEPQTVPDVPSFGESPPLSPIDMDTQERIKAERKRLRNRIAASKCRKRKLERISRLEEKVKTLKSQNTELASTASLLREQVAQLKQKVLSHVNSGCQLLPQHQVPAY
Turning to B2, the binding result in experiment [1] was “no binding”.

B3: IRF8 (protein, UniProt Q02556 1-426)
chain: MCDRNGGRRLRQWLIEQIDSSMYPGLIWENEEKSMFRIPWKHAGKQDYNQEVDASIFKAWAVFKGKFKEGDKAEPATWKTRLRCALNKSPDFEEVTDRSQLDISEPYKVYRIVPEEEQKCKLGVATAGCVNEVTEMECGRSEIDELIKEPSVDDYMGMIKRSPSPPEACRSQLLPDWWAQQPSTGVPLVTGYTTYDAHHSAFSQMVISFYYGGKLVGQATTTCPEGCRLSLSQPGLPGTKLYGPEGLELVRFPPADAIPSERQRQVTRKLFGHLERGVLLHSSRQGVFVKRLCQGRVFCSGNAVVCKGRPNKLERDEVVQVFDTSQFFRELQQFYNSQGRLPDGRVVLCFGEEFPDMAPLRSKLILVQIEQLYVRQLAEEAGKSCGAGSVMQAPEEPPPDQVFRMFPDICASHQRSFFRENQQITV
Take B3: the binding entry in experiment [1] is “no binding”.
